Substitutions are numbered along the chain they refer to. No constants are given. Whether binding was seen depends on the method and setting. In cells and extracts the contact can be indirect. Some results given as binding are weak or reduced against the parent protein; the word gives no strength. Tags and fused reporters may be left off the sequences shown.
Key:
Assay in all cases: co-IP; HEK293 cells co-transfected with HA-RAB3A constructs and myc-flag-RIM1; lysates (20 mM Tris-HCl pH 7.5, 150 mM NaCl, 1 mM EDTA, 0.3% Triton-X100, 10% glycerol) incubated with magnetic anti-HA beads for 1 h at 4 °C; input and IP blotted for Flag and HA
[1] = target: T1, HA-tagged RAB3A Q81L (mimicking the GTP-bound state) (UniProt P20336)
T1 sequence: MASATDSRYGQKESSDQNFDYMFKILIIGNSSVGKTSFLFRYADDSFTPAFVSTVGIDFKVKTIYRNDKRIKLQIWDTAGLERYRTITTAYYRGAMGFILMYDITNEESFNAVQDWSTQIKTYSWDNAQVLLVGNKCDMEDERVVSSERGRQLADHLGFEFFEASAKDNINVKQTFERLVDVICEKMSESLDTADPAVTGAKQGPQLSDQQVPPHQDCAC

Amino acid sequences for entries named in this document (tags omitted).
UniProt Q86UR5: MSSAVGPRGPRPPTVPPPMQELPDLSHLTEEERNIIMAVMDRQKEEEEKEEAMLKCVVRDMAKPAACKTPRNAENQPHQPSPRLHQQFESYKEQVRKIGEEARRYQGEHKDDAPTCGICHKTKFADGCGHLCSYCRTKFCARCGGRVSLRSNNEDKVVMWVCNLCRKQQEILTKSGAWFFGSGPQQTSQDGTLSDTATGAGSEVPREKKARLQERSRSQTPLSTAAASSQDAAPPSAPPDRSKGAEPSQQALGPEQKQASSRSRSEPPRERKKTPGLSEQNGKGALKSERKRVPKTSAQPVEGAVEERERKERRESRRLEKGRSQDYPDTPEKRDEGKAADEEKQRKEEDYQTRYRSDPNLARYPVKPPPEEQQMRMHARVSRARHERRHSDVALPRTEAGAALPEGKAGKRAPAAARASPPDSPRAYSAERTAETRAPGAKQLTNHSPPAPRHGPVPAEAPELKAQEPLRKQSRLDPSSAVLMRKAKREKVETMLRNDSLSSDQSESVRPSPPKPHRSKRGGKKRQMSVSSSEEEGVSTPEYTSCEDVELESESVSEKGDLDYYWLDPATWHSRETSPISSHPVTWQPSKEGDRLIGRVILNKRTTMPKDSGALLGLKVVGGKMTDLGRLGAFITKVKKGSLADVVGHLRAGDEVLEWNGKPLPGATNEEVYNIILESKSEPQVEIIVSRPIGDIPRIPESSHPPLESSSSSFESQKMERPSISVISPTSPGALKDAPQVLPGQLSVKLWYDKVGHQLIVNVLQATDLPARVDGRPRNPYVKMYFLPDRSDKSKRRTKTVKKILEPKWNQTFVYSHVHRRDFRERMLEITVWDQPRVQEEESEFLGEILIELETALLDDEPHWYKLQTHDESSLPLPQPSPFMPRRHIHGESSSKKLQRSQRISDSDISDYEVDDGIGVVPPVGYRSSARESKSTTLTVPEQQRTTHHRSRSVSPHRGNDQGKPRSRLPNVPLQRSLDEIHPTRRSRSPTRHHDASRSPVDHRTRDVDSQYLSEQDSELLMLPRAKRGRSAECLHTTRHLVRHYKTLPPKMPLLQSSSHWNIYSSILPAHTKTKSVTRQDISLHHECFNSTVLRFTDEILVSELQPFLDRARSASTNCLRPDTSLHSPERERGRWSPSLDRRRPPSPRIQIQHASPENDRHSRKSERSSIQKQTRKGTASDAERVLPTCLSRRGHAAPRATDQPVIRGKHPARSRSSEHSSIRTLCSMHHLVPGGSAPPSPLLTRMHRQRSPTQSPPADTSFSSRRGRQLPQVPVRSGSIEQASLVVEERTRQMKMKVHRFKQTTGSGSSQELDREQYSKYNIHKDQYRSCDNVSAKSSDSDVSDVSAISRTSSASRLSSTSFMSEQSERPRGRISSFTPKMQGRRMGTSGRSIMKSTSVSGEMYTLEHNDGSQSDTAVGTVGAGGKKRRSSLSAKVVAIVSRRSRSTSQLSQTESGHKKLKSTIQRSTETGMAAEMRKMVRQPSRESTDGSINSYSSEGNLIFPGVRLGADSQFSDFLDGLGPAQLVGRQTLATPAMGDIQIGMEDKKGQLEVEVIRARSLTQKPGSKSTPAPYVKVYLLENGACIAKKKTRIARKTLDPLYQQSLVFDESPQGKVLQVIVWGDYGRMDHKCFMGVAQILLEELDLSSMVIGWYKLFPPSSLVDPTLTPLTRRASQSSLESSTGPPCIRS

[2] = target: T2, HA-tagged RAB3A T36N (mimicking the GDP-bound state) (UniProt P20336)
T2 sequence: T1 sequence with T36N, L81Q

[3] = target: T3, HA-tagged RAB3A T86A (phospho-deficient) (UniProt P20336)
T3 sequence: T1 sequence with L81Q, T86A

[4] = target: T4, HA-tagged RAB3A T86E (phospho-mimic) (UniProt P20336)
T4 sequence: T1 sequence with L81Q, T86E

[5] = target: T5, HA-tagged RAB3A wild type (UniProt P20336)
T5 sequence: T1 sequence with L81Q

myc-flag-RIM1 (from UniProt Q86UR5 1-1692)
binding [1]: binds | binding [2]: no binding | binding [3]: binds | binding [4]: binds | binding [5]: binds
